Source: PubChem BioAssay AID504333 (National Center for Advancing Translational Sciences (NCATS), 2011)
Out of some 360,000 compounds screened, about 16,000 (4.4%) were called active. The shares of active, inactive and inconclusive entries below differ from those in the screen. Calls come from the whole dose curve; as a rule, active = well fitted inhibition curve with a large enough effect; inconclusive = small, poorly fitted or top-dose-only effect; inactive = no such curve, though single readings can be large or run the other way. Potencies beside an inconclusive call are fits to weak or partial responses and may not hold up.

target: Bromodomain adjacent to zinc finger domain protein 2B (Homo sapiens) (UniProt Q9UIF8); assay: qHTS Assay for Inhibitors of BAZ2B; details: AlphaScreen BAZ2B-H3K14Ac peptide displacement; series mostly up to 114 µM; note: nearly all actives have a fitted effect of over 60% in size
Sequence of UniProt Q9UIF8 (Q9UIF8 whole entry, looked up, the tested form may be a part): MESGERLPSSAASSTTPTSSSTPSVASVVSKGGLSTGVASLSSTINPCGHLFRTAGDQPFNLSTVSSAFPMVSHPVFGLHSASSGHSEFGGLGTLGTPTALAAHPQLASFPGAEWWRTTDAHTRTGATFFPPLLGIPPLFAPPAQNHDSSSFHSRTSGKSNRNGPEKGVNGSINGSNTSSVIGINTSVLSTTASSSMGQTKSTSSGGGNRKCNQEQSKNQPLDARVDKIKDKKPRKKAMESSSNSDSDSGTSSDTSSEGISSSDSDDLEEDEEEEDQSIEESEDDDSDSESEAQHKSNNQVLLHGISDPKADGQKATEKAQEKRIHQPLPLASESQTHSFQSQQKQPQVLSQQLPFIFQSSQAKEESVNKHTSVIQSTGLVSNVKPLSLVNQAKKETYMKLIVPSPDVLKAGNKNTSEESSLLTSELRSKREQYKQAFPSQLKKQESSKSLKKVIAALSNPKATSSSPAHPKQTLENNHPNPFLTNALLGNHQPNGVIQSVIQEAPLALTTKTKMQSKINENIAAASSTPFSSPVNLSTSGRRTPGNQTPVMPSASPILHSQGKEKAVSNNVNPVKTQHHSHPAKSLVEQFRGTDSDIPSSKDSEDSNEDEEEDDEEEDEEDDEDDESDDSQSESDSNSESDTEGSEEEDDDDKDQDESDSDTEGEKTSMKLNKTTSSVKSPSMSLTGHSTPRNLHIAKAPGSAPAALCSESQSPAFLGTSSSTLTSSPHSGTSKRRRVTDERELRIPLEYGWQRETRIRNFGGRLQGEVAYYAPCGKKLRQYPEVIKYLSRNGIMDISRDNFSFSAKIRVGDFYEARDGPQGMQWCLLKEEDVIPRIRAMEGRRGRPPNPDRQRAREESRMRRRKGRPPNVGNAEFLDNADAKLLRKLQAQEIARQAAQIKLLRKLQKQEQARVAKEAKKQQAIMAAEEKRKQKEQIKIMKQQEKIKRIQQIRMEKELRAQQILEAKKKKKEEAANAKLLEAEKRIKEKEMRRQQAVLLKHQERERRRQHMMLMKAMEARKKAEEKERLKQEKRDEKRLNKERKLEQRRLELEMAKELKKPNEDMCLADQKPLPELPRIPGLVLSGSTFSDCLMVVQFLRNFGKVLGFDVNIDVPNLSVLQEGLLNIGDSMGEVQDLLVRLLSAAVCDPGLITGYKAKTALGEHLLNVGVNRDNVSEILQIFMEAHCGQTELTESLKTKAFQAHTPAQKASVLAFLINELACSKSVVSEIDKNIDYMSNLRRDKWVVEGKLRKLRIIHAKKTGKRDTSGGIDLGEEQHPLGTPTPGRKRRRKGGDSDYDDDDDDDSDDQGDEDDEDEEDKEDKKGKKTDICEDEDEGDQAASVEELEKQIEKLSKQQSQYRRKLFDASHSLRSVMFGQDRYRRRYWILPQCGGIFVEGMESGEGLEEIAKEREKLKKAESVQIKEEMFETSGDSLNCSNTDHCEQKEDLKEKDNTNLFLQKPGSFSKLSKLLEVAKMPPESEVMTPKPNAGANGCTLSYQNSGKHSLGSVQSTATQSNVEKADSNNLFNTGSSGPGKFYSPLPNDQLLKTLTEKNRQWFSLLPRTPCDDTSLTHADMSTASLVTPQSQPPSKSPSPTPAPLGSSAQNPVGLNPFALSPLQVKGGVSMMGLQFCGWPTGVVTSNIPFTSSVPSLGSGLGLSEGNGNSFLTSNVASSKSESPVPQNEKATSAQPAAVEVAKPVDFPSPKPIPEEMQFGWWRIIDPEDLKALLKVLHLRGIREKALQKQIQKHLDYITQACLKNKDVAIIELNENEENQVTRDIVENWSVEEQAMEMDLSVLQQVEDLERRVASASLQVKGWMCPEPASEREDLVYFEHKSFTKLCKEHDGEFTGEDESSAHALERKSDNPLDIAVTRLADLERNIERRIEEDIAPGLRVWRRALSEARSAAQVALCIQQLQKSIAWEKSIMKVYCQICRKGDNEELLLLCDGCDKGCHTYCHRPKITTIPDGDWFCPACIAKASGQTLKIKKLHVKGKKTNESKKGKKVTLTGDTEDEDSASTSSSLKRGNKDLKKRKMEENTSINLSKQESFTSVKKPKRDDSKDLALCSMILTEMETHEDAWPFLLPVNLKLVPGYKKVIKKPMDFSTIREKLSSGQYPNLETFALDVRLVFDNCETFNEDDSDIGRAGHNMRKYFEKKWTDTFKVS
Text: BAZ2B (bromodomain adjacent to zinc finger domain, 2B) belongs to a family of ubiquitously expressed bromodomain containing proteins, which biological function has not yet been elucidated. […] The interaction of BAZ2B with ISWI mediated by the BAZ1 motif has recently been described. […] The protocol is based on the AlphaScreen (PerkinElmer) displacement assay developed by NCGC [5], but uses the peptide ligand Biot-H3K14Ac, a high affinity binding partner for BAZ2B, in an AlphaScreen format. Although AlphaScreen has significant advantages with its utility in a variety of epigenetic target assays, the primary screening data provided in this deposition should be used with caution due to the prevalence of screening artifacts. The top compound concentration tested was 110uM in this assay, which increases number of actives and potential artifacts. An AlphaScreen counterscreen is highly recommended to be run against any putative actives to eliminate non-specific artifacts. Alternatively, one can use other AlphaScreen assays in PubChem to filter out promiscuous hits. Eberharter, A. et al. ACF1 improves the effectiveness of nucleosome mobilization by ISWI through PHD-histone contacts. The EMBO journal 23, 4029-4039. 2004. PMID: 15457208 [2] Jones, M.H. et al. A novel family of bromodomain genes. Genomics 63, 40-45. 2000. PMID: 10662543 [3] Yasgar, et al. Compound Management for Quantitative High-Throughput Screening. JALA. 2008 Apr;13(2):79-89. PMID: 18496600 [4] Inglese, et al. Quantitative high-throughput screening: a titration-based approach that efficiently identifies biological activities in large chemical libraries. Proc Natl Acad Sci. 1;103(31):11473-8. 2006. PMID: 16864780 [5] Quinn et al. A chemiluminescence-based method for identification of histone lysine methyltransferase inhibitors. Mol Biosyst 6(5): 782-8. 2010. PMID: 20567762 [6] Baell,Holloway. New substructure filters for removal of pan assay interference compounds (PAINS) from screening libraries and for their exclusion in bioassays. J Med Chem. 53(7):2719-40. 2010. PMID: 20131845 NIH Molecular Libraries Probe Production Network [MLPCN] NIH Chemical Genomics Center [NCGC] Structural Genomics Consortium (SGC) NIH Grant: 5U54 MH084681-02
To each well of a 1,536w plate, 2ul of BAZ2B protein (final 50nM) and 1ul biotinylated histone peptide acetylated at Lys14 [b-H3(5-23)K14Ac] (final 50nM) were added in 1x PBS buffer, pH 7.4, containing 0.01% Tween-20, using a nanoliter dispenser. Formation of a protein-peptide complex proceeded at room temperature for 30 min. A Kalypsys pin-tool was employed to transfer 23 nL of library compound solution in DMSO to each well. Following a 30 min incubation of the protein-peptide complex with compounds at room temperature, a mixture of 40 ug/mL each streptavidin-coated donor and nickel chelate acceptor AlphaScreen beads (final 10 ug/mL) were added in a 1ul dispense for a final volume of 4ul. A brief centrifugation followed (1000rpm, 1 min) and were then incubated protected from the light for 20 min at room temperature. Plates were read on an EnVision multilabel plate reader using the 1,536 plate HTS AlphaScreen aperture (excitation time 80 ms, measurement time 240 ms).
Potency is the fitted concentration of half-maximal effect; tags give direction and shape of the fitted curve.

Row | SMILES | Potency
1 | Cc1ccc(C)c(CN2C(=O)c3ccccc3S(=O)(=O)c3ccc(C(=O)N4CCCCC4)cc32)c1 | inconclusive: 70.8 µM [inhibitor, single point]
2 | CC(=O)Nc1cccc(NC(=O)CSc2nnc(Cc3cccn3C)n2-c2ccc(F)cc2)c1 | inconclusive: 79.4 µM [inhibitor, single point]
3 | CC(=O)NC1=NN(c2ccccc2)C(=O)C1 | inconclusive: 100 µM [inhibitor, single point]
4 | O=C(N1CCOCC1)N1CCN(c2nc(-c3ccccc3)cs2)CC1 | inconclusive: 70.8 µM [inhibitor, single point]
5 | Cc1ccc2nc(CSc3nnc(NC(=O)c4ccc(C(C)(C)C)cc4)s3)cc(=O)n2c1 | inactive
6 | O=C(Nc1ccc(Nc2ccncc2)cc1)c1ccc(Nc2ccnc3ccc([N+](=O)[O-])cc23)cc1[N+](=O)[O-] | inactive
7 | CCCCn1nc(C(=O)Nc2ccccc2N2CCCC2)c2ccccc2c1=O | inconclusive: 50.1 µM [inhibitor, single point]
8 | CC(CCc1ccccc1)NC(=O)CCc1cn(C)c2ccccc12 (stereo not given) | inconclusive: 89.1 µM [inhibitor, single point]
9 | CS/C(=N\S(=O)(=O)c1cccs1)Nc1ccc(F)cc1 | inactive
10 | COc1ccc([C@H]2CC(=O)C=C(c3ccc4ccccc4c3)C2)cc1OC | inconclusive: 70.8 µM [inhibitor, partial curve]
11 | Cc1cccc(/C(N)=N/OC(=O)N2c3ccccc3Sc3ccccc32)c1 | inconclusive: 79.4 µM [inhibitor, single point]
12 | c1ccc(N2CCN(Cc3ccsc3)CC2)nc1 | active: 79.4 µM
13 | COc1ccc(C)cc1NC(=O)CSc1nnc(COc2ccc(C)cc2)n1Cc1ccco1 | inconclusive: 44.7 µM [inhibitor, partial curve]
14 | O=C(NNC(=O)c1ccccc1Br)c1ccc2nc[nH]c2c1 | active: 50.1 µM
15 | CCOC(=O)Nc1sc2c(c1C(=O)OCC)CCC2 | inconclusive: 39.8 µM [inhibitor, single point]
16 | COc1ccc(CCNC(=O)c2cccn2C)cc1 | inconclusive: 5.01 µM [inhibitor, full curve, poor fit]
17 | CCC(C)c1ccccc1OCCOCCN1CCCC1 (stereo not given) | inconclusive: 79.4 µM [inhibitor, partial curve]
18 | COc1ccc(CN2CCN(C(=O)c3cccs3)CC2)cc1 | active: 56.2 µM
19 | CCCC(c1nnnn1C(C)(C)CC)N1CCN(C(=O)c2ccco2)CC1 (stereo not given) | inactive
20 | CCc1ccc(NS(=O)(=O)c2ccc3[nH]c4c(c3c2)CCCCCC4)cc1 | inconclusive: 20 µM [inhibitor, full curve]
